According to PubChem BioAssay (Tox21):
Several values for one entry are separate records, joined by “and”; a condition that tells them apart may be missing. Equal entries are not always repeated. Inconclusive results, whose numbers are uncertain, are shown with a selection of clear calls. For part of these data: Potencies of inconclusive entries are doubtful fits and often do not repeat. Activity calls are given as the source filed them. Unless noted, calls follow the shape of the dose curve; as a rule, active = well fitted curve in the direction sought with a large enough effect in the repeat runs; inconclusive = weak or mixed curves; inactive = no such curve, though single readings can be large; an effect the other way counts as inactive or inconclusive.

Key:
[1] = qHTS assay to identify small molecule antagonists of the estrogen related receptor (ERR) signaling pathway from Tox21 library - cell viability counter screen (AID 1224834); also: nearly all actives have a fitted effect of over 30% in size; also: potency is read from the fitted curve at half-maximal effect
In short: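 ERR reporter cells, 2,000 per well, rested 6 h, then exposed to compound in DMSO for 17.5 hours at 37 C. Viability read as fluorescence after 30 min with CellTiter-Fluor.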

[2] = qHTS assay to identify small molecule antagonists of the constitutive androstane receptor (CAR) signaling pathway - cell viability counter screen (AID 1224837); also: potency is read from the fitted curve at half-maximal effect; nearly all actives have a fitted effect of over 45% in size
In short: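 HepG2 cells stably carrying hCAR and CYP2B6-2.2kb reporter, stimulated with 50 nM CITCO and compounds at 15 concentrations for 23 h at 37 C. Viability measured by CellTiter-Fluor fluorescence.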

[3] = qHTS assay to identify small molecule antagonists of the estrogen related receptor signaling pathway with the pleiotropic PPARgamma coactivator (PGC) from Tox21 10K library - cell viability counter screen (AID 1224840; active = well fitted cell-killing curve with a large enough effect in the repeat runs, not every such curve was filed as active; inconclusive = weak or mixed curves, or effect the other way; inactive = no such curve, though single readings can be large or run the other way; also: potency is read from the fitted curve at half-maximal effect; nearly all actives have a fitted effect of over 40% in size)
In short: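 PGC/ERR cells (2,000/well) plated 6 h, then compound-treated for 17.5 h at 37 C. Viability measured by CellTiter-Fluor fluorescence after 30 min at 37 C, multiplexed with the pathway assay.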

[4] = qHTS assay to identify small molecule agonists of the estrogen related receptor signaling pathway with the pleiotropic PPARgamma coactivator (PGC) from Tox21 10K library (AID 1224842); also: potency is read from the fitted curve at half-maximal effect; nearly all actives have a fitted effect of over 15% in size
In short: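 Luminescence from One-Glo (30 min, room temperature) measured after PGC/ERR cells had 18 h at 37 C with pinned compound (23 nL in DMSO). Cells had been seeded at 2,000 per well and pre-incubated 6 h.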

[5] = qHTS assay to identify small molecule agonists of the hypoxia (HIF-1) signaling pathway - cell viability counter screen (AID 1224844; calls by dose curve; also: nearly all actives have a fitted effect of over 50% in size; also: potency is read from the fitted curve at half-maximal effect)
In short: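 HRE-bla ME-180 cells, 2,000/well in 0.5% dialyzed FBS medium, treated 17 h at 37C with compounds. Viability read in the same wells as the bla reporter, by CellTiter-Glo luminescence after 30 min at room temperature.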

[6] = qHTS assay to identify small molecule agonists of the constitutive androstane receptor (CAR) signaling pathway - cell viability counter screen (AID 1224836); also: potency is read from the fitted curve at half-maximal effect; nearly all actives have a fitted effect of over 45% in size
In short: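 Viability read-out: CellTiter-Fluor fluorescence after 23 h compound exposure at 37 C/5% CO2 in double-stable HepG2-CYP2B6-hCAR cells, with PK11195 present at 0.75 uM final; compounds tested in 15-point titration.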

[7] = target: Thyrotropin receptor (Homo sapiens) (UniProt P16473); test: qHTS assay to identify small molecule agonists of the thyroid stimulating hormone receptor (TSHR) signaling pathway (AID 1224843; calls by dose curve; also: nearly all actives have a fitted effect of over 45% in size; also: potency is read from the fitted curve at half-maximal effect; as to activation: % is scaled to controls: 0 for no effect and ±100 for the full control effect); details: TSHR-HEK293 cells, cAMP HTRF, agonist mode, 30 min; activation: at 92.4 µM (top of the series) unless noted
UniProt P16473, sequence (P16473 whole entry, looked up): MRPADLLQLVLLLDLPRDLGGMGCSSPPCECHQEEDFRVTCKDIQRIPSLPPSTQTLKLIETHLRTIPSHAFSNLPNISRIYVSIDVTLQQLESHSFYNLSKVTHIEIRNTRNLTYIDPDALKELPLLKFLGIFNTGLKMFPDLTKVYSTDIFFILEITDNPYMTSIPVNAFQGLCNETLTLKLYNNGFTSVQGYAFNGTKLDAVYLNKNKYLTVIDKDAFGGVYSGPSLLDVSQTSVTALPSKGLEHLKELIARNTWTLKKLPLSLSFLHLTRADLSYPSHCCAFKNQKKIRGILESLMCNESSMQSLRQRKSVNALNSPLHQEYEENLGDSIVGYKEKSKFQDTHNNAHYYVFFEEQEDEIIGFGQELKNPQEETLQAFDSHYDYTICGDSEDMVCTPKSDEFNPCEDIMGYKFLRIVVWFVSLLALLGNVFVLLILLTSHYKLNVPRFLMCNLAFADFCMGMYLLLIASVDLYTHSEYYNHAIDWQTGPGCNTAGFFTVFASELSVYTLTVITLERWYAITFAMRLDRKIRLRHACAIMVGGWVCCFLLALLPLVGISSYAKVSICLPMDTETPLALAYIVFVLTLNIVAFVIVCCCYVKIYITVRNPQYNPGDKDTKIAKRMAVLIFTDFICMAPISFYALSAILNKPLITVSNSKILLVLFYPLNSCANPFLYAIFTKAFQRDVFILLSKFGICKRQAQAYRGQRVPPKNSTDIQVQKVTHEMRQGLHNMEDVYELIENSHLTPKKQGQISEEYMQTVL
In short: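 Screening of the Tox21 10K collection used HEK293 cells engineered with TSHR at 800 cells per well. After a 30-min room-temperature compound exposure, HTRF cAMP reagents were added and fluorescence recorded 1 h later.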

[8] = target: Luciferin 4-monooxygenase (Photinus pyralis) (UniProt P08659); test: qHTS assay to identify small molecule inhibitors of firefly luciferase (AID 1224835); also: potency is read from the fitted curve at half-maximal effect; nearly all actives have a fitted effect of over 25% in size
UniProt P08659, sequence (P08659 whole entry, looked up): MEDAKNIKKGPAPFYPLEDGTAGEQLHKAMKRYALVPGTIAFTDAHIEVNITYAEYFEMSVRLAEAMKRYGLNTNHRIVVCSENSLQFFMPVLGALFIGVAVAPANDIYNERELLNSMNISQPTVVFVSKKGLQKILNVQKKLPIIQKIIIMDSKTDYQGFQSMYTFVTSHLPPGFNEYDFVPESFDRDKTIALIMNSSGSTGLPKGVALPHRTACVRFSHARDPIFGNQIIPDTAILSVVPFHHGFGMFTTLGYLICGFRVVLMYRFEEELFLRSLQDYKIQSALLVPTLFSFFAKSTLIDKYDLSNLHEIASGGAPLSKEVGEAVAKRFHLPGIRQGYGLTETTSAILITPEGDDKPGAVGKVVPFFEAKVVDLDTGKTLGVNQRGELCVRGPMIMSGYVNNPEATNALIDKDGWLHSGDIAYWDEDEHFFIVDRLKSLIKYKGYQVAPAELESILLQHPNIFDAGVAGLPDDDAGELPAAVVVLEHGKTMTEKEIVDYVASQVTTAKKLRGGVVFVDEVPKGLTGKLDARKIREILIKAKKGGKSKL
In short: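 Inhibition of purified Photinus luciferase is measured by luminescence. Substrate levels (D-luciferin, ATP) sit at their KM values. Each compound is tested in a concentration series.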

[9] = qHTS assay to identify small molecule antagonists of the estrogen related receptor signaling pathway with the pleiotropic PPARgamma coactivator (PGC) from Tox21 10K library (AID 1224841; call rule not given here; also: potency is read from the fitted curve at half-maximal effect; actives are mostly falling curves and most rising ones were filed inactive; nearly all actives have a fitted effect of over 50% in size)
In short: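 PGC/ERR cell line, 2,000 cells/well, pre-incubated 6 hours at 37 C, then exposed to compounds for 18 hours at 37 C; luciferase read with One-Glo luminescence after 30 min at room temperature.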

[10] = qHTS assay to identify small molecule antagonists of the estrogen related receptor signaling pathway with the pleiotropic PPARgamma coactivator (PGC) cell viability counter screen (AID 1224822; also: potency is read from the fitted curve at half-maximal effect)
In short: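 PGC/ERR cells rested 6 h, then compound-treated 17.5 h at 37 C. CellTiter-Fluor added for 30 min at 37 C, viability measured by fluorescence intensity.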

[11] = qHTS assay to identify small molecule agonists of the estrogen related receptor (ERR) signaling pathway (AID 1224820); details: ERR reporter cell line, luciferase agonist mode; also: potency is read from the fitted curve at half-maximal effect
In short: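 Cells: ERR line from NTP, 2,000/well. Pre-incubation 6 h, 37 C/5% CO2. Compound (DMSO) pin transfer, 18 h 37 C. One-Glo, 30 min RT, luminescence.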

[12] = target: Nuclear receptor subfamily 1 group I member 3 (Homo sapiens) (UniProt Q14994); test: qHTS assay to identify small molecule antagonists of the constitutive androstane receptor (CAR) signaling pathway (AID 1224838); also: nearly all actives have a fitted effect of over 40% in size; also: potency is read from the fitted curve at half-maximal effect
UniProt Q14994, sequence (Q14994 whole entry, looked up): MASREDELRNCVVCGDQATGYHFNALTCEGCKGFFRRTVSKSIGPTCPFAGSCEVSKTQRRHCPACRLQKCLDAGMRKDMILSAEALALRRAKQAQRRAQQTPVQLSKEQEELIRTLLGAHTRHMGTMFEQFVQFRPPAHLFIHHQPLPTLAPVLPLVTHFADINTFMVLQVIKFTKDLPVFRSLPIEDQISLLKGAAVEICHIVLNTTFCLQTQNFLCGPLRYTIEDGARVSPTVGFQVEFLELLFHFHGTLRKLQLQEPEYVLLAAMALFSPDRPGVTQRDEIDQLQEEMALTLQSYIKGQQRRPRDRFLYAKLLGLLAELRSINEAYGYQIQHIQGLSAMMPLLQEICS
In short: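 HepG2 cells stably carrying hCAR and a CYP2B6-2.2kb luciferase reporter, seeded 4 hrs before compound (15 concentrations). Stimulated with 50 nM CITCO for 24 hr at 37 C. ONE-Glo luminescence read after 30 min at room temperature.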

[13] = qHTS assay to identify small molecule antagonists of the estrogen related receptor (ERR) signaling pathway (AID 1224819;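 also: luminescence from an ERR-driven luciferase reporter measured with One-Glo reagent; % is scaled to controls: 0 for no effect and ±100 for the full control effect; nearly all actives have a fitted effect of over 50% in size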)
In short: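 ERR reporter cell line (NTP) plated at 2,000 cells/well, settled 6 h at 37C/5% CO2, then exposed to LOPAC compounds for 18 h at 37C. One-Glo luciferase luminescence read after 30 min at room temperature.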

[14] = test system: estrogen-related receptor alpha (ERRalpha) with PGC-1alpha coactivator, human; test: qHTS assay to identify small molecule antagonists of the estrogen related receptor signaling pathway with the pleiotropic PPARgamma coactivator (PGC) (AID 1224821; calls by dose curve;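 also: % is scaled to controls: 0 for no effect and ±100 for the full control effect; lower luminescence signal means antagonism of PGC/ERR signalling; nearly all actives have a fitted effect of over 50% in size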)
In short: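 Luminescent read-out (One-Glo, 30 min at room temperature) following 18 h treatment of PGC/ERR cells at 37 C with compounds delivered in DMSO. Cells had settled 6 h at 37 C/5% CO2 before dosing.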
Tags tell the direction and shape of the fitted curve or compound fluorescence and quenching.

CC[C@]1(O)C[C@@H]2CN(CCc3c([nH]c4ccccc34)[C@@](C(=O)OC)(c3cc4c(cc3OC)N(C)[C@H]3[C@@](O)(C(=O)OC)[C@H](OC(C)=O)[C@]5(CC)C=CCN6CC[C@]43[C@@H]65)C2)C1
Potency [1]: inconclusive: 84.1 nM [cytotoxic, full curve] and active: 841 nM | Potency [2]: active: 2.66 µM and active: 4.22 µM | Potency [3]: inconclusive: 0.841 µM [cytotoxic, partial curve] | Potency [4]: inconclusive: 0.266 µM [activator, partial curve] | Potency [5]: inconclusive: 0.0425 µM [rising, full curve]

CC(CNC1CCCCC1)OC(=O)c1ccccc1 (stereo not given)
Potency [1]: inactive

O=C1CCc2ccc(OCCCCN3CCN(c4cccc(Cl)c4Cl)CC3)cc2N1
Potency [1]: active: 26.6 µM | Potency [6]: inconclusive: 26.6 µM [cytotoxic, partial curve] | Potency [3]: inconclusive: 21.1 µM [cytotoxic, partial curve] | Potency [7]: inconclusive: 33.5 µM [inhibitor, single point] | Potency [5]: inconclusive: 26.8 µM [cytotoxic, single point]

C=C(C)C(=O)O
Potency [1]: inactive

COc1ccc2sc(C(=O)Nc3nnn[nH]3)c(OC(C)C)c2c1
Potency [1]: inconclusive: 60.9 µM [cytotoxic] | Potency [6]: inconclusive: 24.2 µM [cytotoxic, partial curve] | Potency [2]: inconclusive: 34.2 µM [cytotoxic, partial curve] | Potency [3]: inconclusive: 48.4 µM [cytotoxic, partial curve] | Potency [5]: active: 24.5 µM

NCCNCCO
Potency [1]: inactive

CC1COc2ccccc2N1C(=O)C(Cl)Cl (stereo not given)
Potency [1]: inconclusive: 68.5 µM [cytotoxic, single point] and inconclusive: 61.1 µM [cytotoxic, partial curve, poor fit] | Potency [2]: inconclusive: 30.6 µM [cytotoxic, partial curve] and inconclusive: 48.5 µM [cytotoxic, partial curve] | activation [7]: inconclusive: 17.8% | Potency [5]: inactive

CCCC(=O)C(C)=O
Potency [1]: inactive

Nc1cc(S(=O)(=O)O)cc2cc(S(=O)(=O)O)cc(O)c12
Potency [1]: inconclusive: 30.5 µM [cytotoxic, partial curve] and inconclusive: 43.3 µM [cytotoxic, partial curve] | Potency [8]: inconclusive: 1.58 µM [inhibitor, full curve] | Potency [6]: inconclusive: 48.6 µM [cytotoxic, partial curve] | Potency [3]: inconclusive: 60.8 µM [cytotoxic, partial curve, poor fit] and inconclusive: 30.6 µM [cytotoxic, partial curve]

CCOC(=O)c1ccccc1C(=C1C=C(Br)C(=O)C(Br)=C1)c1cc(Br)c(O)c(Br)c1
Potency [1]: inconclusive: 45.7 µM [cytotoxic, partial curve] | Potency [8]: active: 66.8 µM | Potency [3]: inconclusive: 51.3 µM [cytotoxic] | Potency [9]: active: 51.3 µM | Potency [5]: inconclusive: 41.1 µM [cytotoxic]

NCCc1ccc(O)c(O)c1
Potency [10]: inconclusive: 32.2 µM [cytotoxic] | Potency [3]: inconclusive: 68.8 µM [cytotoxic, single point]

CSc1ccc(C(=O)c2[nH]c(=O)[nH]c2C)cc1
Potency [11]: inconclusive: 23.7 µM [activator, partial curve, poor fit] | Potency [7]: inconclusive: 15 µM [activator]

CCN(CC)CCOC(=O)C(Cc1cccc2ccccc12)CC1CCCO1 (stereo not given)
Potency [1]: inconclusive: 33.5 µM [cytotoxic, single point] | Potency [12]: inactive

COC(=O)Nc1nc2ccc(S(=O)c3ccccc3)cc2[nH]1 (stereo not given)
Potency [1]: inconclusive: 13.7 µM [cytotoxic, full curve] and inconclusive: 473 nM [cytotoxic, full curve] | Potency [8]: inconclusive: 2.75 µM [inhibitor, full curve] | Potency [3]: inconclusive: 27.3 µM [cytotoxic, partial curve]

C1=CC2C3C=CC(C3)C2C1 (stereo not given)
Potency [13]: inactive | Potency [1]: inconclusive: 0.951 µM [cytotoxic, single point] | Potency [6]: inconclusive: 26.8 µM [cytotoxic, single point] | Potency [12]: inconclusive: 53.5 µM [inhibitor, partial curve] | activation [7]: inconclusive: -9.39% | Potency [5]: inconclusive: 13.6 µM [cytotoxic, partial curve]

CCCCCCOC(=O)CCCCC
Potency [1]: inactive

Cc1cc(C)nc(NS(=O)(=O)c2ccc(N)cc2)n1
Potency [1]: inactive | Potency [12]: inconclusive: 69.4 µM [inhibitor, partial curve, poor fit]

Clc1ccc(Nc2nnc(Cc3ccncc3)c3ccccc23)cc1
Potency [1]: inconclusive: 15 µM [cytotoxic, partial curve] | Potency [8]: inconclusive: 38.9 µM [inhibitor, partial curve, poor fit] | Potency [6]: inconclusive: 26.6 µM [cytotoxic, partial curve, poor fit] | Potency [2]: inconclusive: 33.5 µM [cytotoxic, partial curve, poor fit] | Potency [5]: inconclusive: 9.52 µM [rising, full curve]

CC(=O)OC/C=C(/C)CCC=C(C)C
Potency [1]: inactive

Nc1c2c(nc3ccccc13)CCCC2
Potency [14]: inactive | Potency [1]: inconclusive: 48.6 µM [cytotoxic, partial curve] and inconclusive: 68.6 µM [cytotoxic, single point] | Potency [3]: inconclusive: 61.1 µM [cytotoxic, single point] | activation [7]: inconclusive: 23.8%
